Results: publication PMC4336329 (PLoS ONE, 2015)
The campaign covered roughly 310,000 compounds. About 14,000 (4.5%) showed an effect of 50% or more. The effect is printed as a negative number. The list shows a part of the results.

biological target: human ether-à-go-go-related gene (hERG) potassium channel (human, UniProt Q12809); test: primary screen, population patch clamp on CHO cells stably expressing hERG
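Note: peak tail current of the secondary pulse compared with the same well before compound.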

Chain of human ether-à-go-go-related gene (hERG) potassium channel (Q12809 whole entry, looked up): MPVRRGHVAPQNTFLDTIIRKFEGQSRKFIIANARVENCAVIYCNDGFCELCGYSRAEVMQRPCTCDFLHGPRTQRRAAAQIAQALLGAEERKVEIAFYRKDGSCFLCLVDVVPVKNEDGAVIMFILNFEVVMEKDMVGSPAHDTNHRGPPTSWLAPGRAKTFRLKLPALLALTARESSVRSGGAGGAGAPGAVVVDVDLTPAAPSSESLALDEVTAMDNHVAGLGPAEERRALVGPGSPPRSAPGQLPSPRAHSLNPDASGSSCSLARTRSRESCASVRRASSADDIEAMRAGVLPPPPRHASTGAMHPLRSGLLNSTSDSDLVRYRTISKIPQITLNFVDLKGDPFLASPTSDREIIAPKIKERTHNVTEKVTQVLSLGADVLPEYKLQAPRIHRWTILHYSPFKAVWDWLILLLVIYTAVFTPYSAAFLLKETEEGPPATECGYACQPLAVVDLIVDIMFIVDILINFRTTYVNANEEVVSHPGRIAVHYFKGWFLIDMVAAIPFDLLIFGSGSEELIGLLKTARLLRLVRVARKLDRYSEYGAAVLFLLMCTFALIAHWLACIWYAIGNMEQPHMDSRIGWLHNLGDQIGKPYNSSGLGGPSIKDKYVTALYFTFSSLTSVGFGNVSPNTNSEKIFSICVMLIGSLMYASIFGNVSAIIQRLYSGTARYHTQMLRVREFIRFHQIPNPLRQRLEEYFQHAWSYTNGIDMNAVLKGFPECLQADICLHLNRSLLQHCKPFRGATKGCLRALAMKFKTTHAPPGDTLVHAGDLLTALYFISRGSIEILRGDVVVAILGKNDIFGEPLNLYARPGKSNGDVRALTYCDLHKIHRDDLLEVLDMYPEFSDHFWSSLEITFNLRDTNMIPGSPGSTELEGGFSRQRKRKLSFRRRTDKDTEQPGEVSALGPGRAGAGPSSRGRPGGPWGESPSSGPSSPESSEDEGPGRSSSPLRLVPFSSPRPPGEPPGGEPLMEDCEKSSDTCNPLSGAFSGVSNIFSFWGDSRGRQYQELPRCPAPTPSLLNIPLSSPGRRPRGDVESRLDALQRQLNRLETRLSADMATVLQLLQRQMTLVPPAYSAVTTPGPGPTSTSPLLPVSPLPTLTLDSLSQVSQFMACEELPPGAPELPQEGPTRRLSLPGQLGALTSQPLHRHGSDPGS

Row | Compound | hERG current change (%, negative = inhibition) at 10uM [%]
1 | O=C(CN(c1ccccc1)S(=O)(=O)c1ccc(F)cc1)N1CCCCCC1 | -32.3
2 | CCC[C@H]1COCCS(=O)(=O)N1Cc1ccccc1 | 4.86
3 | O=C(CN1CCN(c2ccccn2)CC1)Nc1ccc(OCc2ccccc2)cc1 | -45.3
4 | O=C(Nc1c(-c2cccs2)nc2ccccn12)c1ccc2ccccc2c1 | 29.7
5 | N#Cc1ccccc1CN1C(=O)NC2(CCCCCC2)C1=O | -3.88
6 | Fc1ccc(NC(=S)N2CCSC2c2cccs2)cc1 (centres unmarked) | 4.73
7 | COc1ccc(CCN2C(=O)CC(Cc3ccc(C)cc3)C2=O)cc1OC (centres unmarked) | -26.2
8 | CC(C)(C)c1cc(CN2CCCC(O)C2)c(O)c(C(C)(C)C)c1 (centres unmarked) | -13.9
9 | Cc1cc(C)n(-c2nc3c(c(=O)n(C)c(=O)n3C)n2C)n1 | 0.426
10 | COc1ccc(Oc2ccccc2C=O)cc1 | 3.42
11 | Cc1nn2c(N)c(-c3ccccc3)cnc2c1-c1ccc(Cl)cc1 | 16.7
12 | CC1(C)CC(=O)N(c2ccccc2)C1(C)O (centres unmarked) | -7.84
13 | COc1ccc(C(=O)N[C@H](C(=O)NCC2CCCCC2)C(C)C)cc1 | 8.74
14 | O=C(NNc1cccc(Cl)n1)Nc1ccccc1F | -0.675
15 | Cc1cccc(N2CCN(C(=O)c3ccc4nc(N5CCCCC5)sc4c3)CC2)c1C | 2.19
16 | CCN(C#N)c1nc(NC(C)C)nc(NC(C)(C)C)n1 | -2.59
17 | CCOc1ccc(NC(=O)CC2S/C(=N/N=C3CCCCCC3)NC2=O)cc1 (centres unmarked) | 10.3
18 | Cc1ccc(NS(=O)(=O)c2cccs2)nc1 | 6.58
19 | Cc1c(OCC(=O)NCC2CCC(C(=O)O)CC2)ccc2c(-c3ccccc3)cc(=O)oc12 (centres unmarked) | 17.2
20 | COc1ccc(N(CCC(=O)Nc2ccccc2F)S(=O)(=O)c2ccc(C)cc2C)cc1 | -16.7
21 | CC1=NN(c2cccc(Cl)c2)C(=O)C12CC(C)=C(C)CS2 (centres unmarked) | -6.05
22 | COC(=O)c1sc(N2C(=O)C(O)=C(C(=O)c3ccc(C)o3)C2c2ccc([N+](=O)[O-])cc2)nc1C (centres unmarked) | 7.29
23 | CC(C)Sc1nnc(SCC(=O)NCCCN2CCCC2=O)s1 | 3.95

Row | Compound | hERG current change (%, negative = inhibition) at 10uM [%]
24 | C=CCC1NS(=O)(=O)OC(CCc2ccccc2)C1O (centres unmarked) | 0.294
25 | O=C1CC(N2CCN(C3CCc4ccccc4C3)CC2)C(=O)N1c1ccccc1 (centres unmarked) | -64.6
26 | COc1ccc(C(C#N)c2nc3ccccc3nc2Cl)cc1 (centres unmarked) | -4.33
27 | COc1cc(CN2CCC(C(=O)NCCC(C)C)CC2)ccc1OCc1ccccc1.O=C(O)C(=O)O | -67.8
28 | O=C1c2cccc([N+](=O)[O-])c2C(=O)N1c1c[nH]c(=O)[nH]c1=O | 19.7
29 | CS(=O)(=O)N1CCN(C(=O)Nc2ccccc2)CC1 | 21.2
30 | CCc1ccc(-c2cc3c(=O)n(CC(=O)NCc4ccccc4F)ncn3n2)cc1 | 16.2
31 | Cc1ccc(C(=O)Nc2ccc(Cl)cc2C(F)(F)F)c(Cl)c1 | -2.36
32 | COc1cccc(C2=NOC(C(=O)Nc3ccc4c(c3)OCO4)C2)c1OC (centres unmarked) | -7.23
33 | COC(=O)c1c(C)c(C)nc(N)c1C#N | 10.2
34 | CC(C)(Oc1ccc(Cl)cc1)C(=O)NCc1n[nH]c(=O)c2ccccc12 | -31.7
35 | O=C(NC(NC(=S)Nc1cccc(C(=O)O)c1)C(Cl)(Cl)Cl)OCc1ccccc1 (centres unmarked) | 1.69
36 | CCCCN(CC)S(=O)(=O)c1ccc(C(=O)Nc2nnc(COC)o2)cc1 | 1.47
37 | C#CCn1c(=NC(=O)c2ccc(Br)s2)sc2cc(NC(C)=O)ccc21 | 10.6
38 | CCOC(=O)Cc1csc(SCC(=O)NC2CCCC(C)C2C)n1 (centres unmarked) | -12.6
39 | CCNc1nc(NCC)n2c(SCC(=O)Nc3ccc(F)cc3)nnc2n1 | -14.6
40 | COc1ccc(-c2cc(C(=O)N/N=C/c3cccnc3)c3ccccc3n2)cc1 | -7.06
41 | COc1cccc(-n2cc(C(=O)NC(C)C)c3ccccc3c2=O)c1 | -8.68
42 | Cc1ccc(C2=CSC3=NS(=O)(=O)CCN23)cc1 | 1.05
43 | Cn1nnnc1SCC(=O)Nc1ccccc1-c1ccccc1 | -2.87
44 | Cc1noc(C)c1C(=O)NC(C)c1ccc(Cl)cc1Cl (centres unmarked) | -8.56
45 | CCOC(=O)CNC(=O)CNC(=O)c1ccc(OC(C)C)cc1 | 13
46 | CC(=O)Nn1cc2c(=O)n(C)c(=O)n(C)c2c1 | 7.68

Row | Compound | hERG current change (%, negative = inhibition) at 10uM [%]
47 | COC(=O)c1ccccc1NC(=O)n1cc(C)cn1 | -5.58
48 | CN(CC(=O)N1CCCCC1)S(=O)(=O)c1cccc2nsnc12 | 0.854
49 | O=c1cc(-c2ccccc2Cl)oc2c(NS(=O)(=O)c3cccs3)ccc(O)c12 | -23.4
50 | N#CC1=C(N)OC2=C(CCc3ccccc32)C1c1ccccc1Cl (centres unmarked) | 26.3
51 | O=C(O)C1=C[C@H](c2ccc(Br)cc2)C[C@H](OCCCCO)O1 | 5.9
52 | COc1ccc(-n2c(C)nnc2SCC(=O)NC2CC2)cc1 | 2.42
53 | Cc1nn(-c2ccccc2Cl)c2sc(C(=O)Nc3nnc(C4CC4)s3)cc12 | 17.7
54 | Cc1ccccc1OCC(=O)NNC(=O)CSc1nc(N)cc(N)n1 | 7.88
55 | O=c1c2cc(Br)cc(Br)c2oc2nc3n(c(=O)c12)CCCS3 | 2.96
56 | Cc1cc(C)cc(NC(=O)CSc2nnc(-c3ccc(S(=O)(=O)N4CCCC4)cc3)o2)c1 | -1.48
57 | CCOC(=O)CNC(=O)CSc1nc(-c2ccc(C)cc2)ns1 | 4.63
58 | O=C(Nc1ccc(Br)cc1)Nc1ccccc1Cl | 19.7
59 | C/C(CC(=O)Nc1cccc(F)c1)=N\NC(=O)c1ccncc1 | 18.6
60 | CCOC(=O)c1cccc(NC(=O)CSc2nc3ccccc3c(=O)n2CCOC)c1 | -36.1
61 | COc1ccc(CCNC(=O)CCNC(=O)c2ccc(Cl)cc2)cc1OC | -12.8
62 | CN(CC(=O)N1CCOCC1)S(=O)(=O)c1ccc2ccccc2c1 | 5.33
63 | Cc1cccc(Cc2c(C)nc3nc(SCC(=O)NCc4ccco4)nn3c2C)c1 | -40.8
64 | COC(=O)c1c(NC(NC(=O)C(C)C)C(Cl)(Cl)Cl)sc2c1CCCC2 (centres unmarked) | -1.67
65 | O=C(COC(=O)Cc1ccc(Cl)c(Cl)c1)NCc1ccco1 | 12.9
66 | CN(C)S(=O)(=O)c1ccc(N2CCCC2)c(C(=O)NCC2CCCCC2)c1 | 7.58
67 | Cc1cc(O)c(N=Cc2cc3c(cc2[N+](=O)[O-])OCO3)cc1C | 22
68 | O=C(COc1ccc(Cl)cc1)NCCCNC(=O)c1ccccn1 | -16.3
69 | Cc1ccc(CNc2ncnc3cc(Cl)ccc23)cc1 | 12.4

Row | Compound | hERG current change (%, negative = inhibition) at 10uM [%]
70 | CCCOc1ccc(C(=O)NCC2OCCc3ccccc32)cc1OC (centres unmarked) | -2.76
71 | COc1ccc2c(c1)cc(C(=O)N[C@@H](Cc1ccccc1)C(=O)O)n2C | 29.4
72 | Cc1nc(C)c(C(=O)N2CCCC(C(=O)c3cc(F)ccc3F)C2)s1 (centres unmarked) | -0.709
73 | O=C(Nc1ccc(N2CCOCC2)c(Cl)c1)c1ccc(F)cc1 | -3.11
74 | CCc1cc(=O)oc2cc(OC(C)C(=O)NCC(O)c3ccccc3)c(Cl)cc12 (centres unmarked) | 13
75 | COc1ccc(C(=O)NC(CC(=O)O)c2cc([N+](=O)[O-])ccc2Cl)c(SC)c1 (centres unmarked) | 21.7
76 | Cc1cc(OCc2cc(C(=O)N(C)Cc3nonc3C)no2)cc(C)c1Cl | 11.8
77 | O=c1oc(-c2cccc(C(F)(F)F)c2)nn1-c1ccc(C(F)(F)F)cn1 | -9.47
78 | COc1ccc(C2(C)NC(=O)N(CC(=O)N3CCc4ccccc43)C2=O)cc1OC (centres unmarked) | 4.39
79 | CCOC(=O)c1sc2nc3n(c(=O)c2c1C)CCCCC3 | -17.2
80 | C/C(=N\NC(=O)c1c(Br)c(C)nn1C)c1ccc(NC(=O)c2ccoc2C)cc1 | 12.5
81 | COc1ccc(CCNC(=O)C2CC(c3cc(C(F)(F)F)cc(C(F)(F)F)c3)=NO2)cc1 (centres unmarked) | 0.762
82 | CCOC(=O)c1ccc(Nc2nnc(C)c3ccccc23)cc1 | -43.8
83 | Nc1nnn(CC(=O)N/N=C/c2ccccc2)n1 | 2.64
84 | Cc1ccc2nc(SC(C)C(=O)Nc3cccc([N+](=O)[O-])c3)[nH]c2c1 (centres unmarked) | 2.89
85 | CCN(CC(=O)Nc1c(F)cccc1F)C(=O)Cc1ccsc1 | -0.0163
86 | CCOc1ccc(CCNC(=O)COC(=O)c2nc(Cl)ccc2Cl)cc1OCC | -17.2
87 | CN(C)S(=O)(=O)c1cccc(NC(=O)CSc2nc3c(cc2C#N)C(=O)CC(C)(C)C3)c1 | -34.7
88 | COc1ccc(CNC(=O)Cn2ncn3c(cc4ccccc43)c2=O)cc1 | -8.37
89 | O=C(Cn1cnc2cc([N+](=O)[O-])ccc2c1=O)NCCc1ccc(Cl)cc1 | -21.3
